Screen size: about 52,000 compounds; about 1,700 (3.3%) were called active. Cut-off read from the data, not from the text of the source: active = survival mostly below about 52% (no sharp cut-off); inactive = mostly above about 56%. Some of the results follow.

For this assay, the system named is Wild type. Kind of assay: growth inhibition of S. aureus wild type versus tarO mutant, primary screen, teichoic acid synthesis inhibitors, RN4220, OD600 (AID 463173). Conditions: S. aureus RN4220 wild type/DeltatarO growth, OD600, 18 h, stronger effect = lower value, screened at 18.75 µg/mL (by protocol).
Consider `COc1ccccc1CNC(=O)CCc1c(C)nc2c(c(C)nn2-c2ccc(C)c(C)c2)c1C`, for which the survival was inactive: 91%.
Turning to `O=C(NC(=O)c1ccccc1)Nc1ccc(-n2nc(C(F)(F)F)cc2C(F)(F)F)cc1`, the survival was inactive: 162%.
Consider `Cc1cccc(Nc2c(-c3cccs3)nc3nc(C)cc(C)n23)c1`, for which the survival was inactive: 163%.
Regarding `CN(c1ccccc1C(=O)N1CCN(Cc2ccc3c(c2)OCO3)CC1)S(C)(=O)=O`, the survival was inactive: 96%.
The value for `CCc1ccc(CNC(=O)c2cc3c(=O)n(CC)c4ccccc4c3s2)cc1` was inactive: 63%; that for `CCOc1ccccc1CNC(=O)CN1C(=O)CSc2ccc(S(=O)(=O)N3CCOCC3)cc21` was inactive: 73%; that for `COc1ccc(OC)c(NC(=O)Cn2c(=O)n(CC3CCCO3)c(=O)c3cc(OC)c(OC)cc32)c1` (stereo not given) was inactive: 72%.
On to `COc1ccc(NC(=O)CN(C)S(=O)(=O)c2ccc3c(c2)CCC(=O)N3)c(OC)c1`, for which the survival was inactive: 86%.
Turning to `CCc1ccc(NC(=O)CSc2nc3c(sc4ccccc43)c(=O)n2CCCOC)cc1`, the survival was inactive: 73%.
`Cc1ccc(CNC(=O)c2cnc(N3CCCCC3)c3ccccc23)cc1`: the survival was inactive: 71%.
Regarding `CCOC(=O)CNc1nc2ccccc2n2c(C)nnc12`, the survival is inactive: 86%.
Consider `O=C(c1ccc2c(c1)CCN2S(=O)(=O)c1ccccc1)N1CCN(c2cccc(Cl)c2)CC1`, for which the survival is inactive: 70%.
Consider `Cc1ccc(C)c(OCCn2cc(C(=O)c3cccs3)c3ccccc32)c1`, for which the survival is inactive: 72%.
The value for `CCSc1nc2ccc(C)cc2cc1C#N` was inactive: 111%.
With `Cc1cccc(C(=O)N2CCc3cc(CNC(=O)c4ccc(Br)o4)ccc32)c1`, the survival was inactive: 87%.
The value for `O=[N+]([O-])c1ccc(S(=O)(=O)NCc2nc3cccnc3n2Cc2ccccc2Cl)cc1` was inactive: 74%.
Consider `O=C(c1ccc(F)c(F)c1)N1CCc2ccccc2C1`, for which the survival is inactive: 131%.
Regarding `CCOC(=O)/C(C#N)=C(\O)c1ccccc1`, the survival is inactive: 104%.
As to `O=c1nc2c(-c3ccc(F)cc3Cl)n[nH]n2c2ccccc12`, the survival is inactive: 72%.
Regarding `CC1CCCC(NS(=O)(=O)c2cccs2)C1C` (stereo not given), the survival is inactive: 134%.
Consider `COCc1cc(C)nc2sc(C(=O)Nc3ccc(OC(F)(F)F)cc3)c(N)c12`, for which the survival was inactive: 88%.
For the compound `COc1ccc(C)cc1NC(=O)Cn1c(=O)nc(-c2ccccc2F)c2cc(Cl)ccc21`, the survival is inactive: 82%.
For `COC(=O)c1cc(NC(=O)C2CCCN(S(=O)(=O)c3c(C)n[nH]c3C)C2)cc(C(=O)OC)c1` (stereo not given), the survival was inactive: 141%.
For `Cc1c(C(=O)OCC2CCCCC2)[nH]c2c1C(=O)CC(c1ccc(F)cc1)C2` (stereo not given), the survival was inactive: 134%.
As to `O=C(CSc1nncn2c1cc1occc12)Nc1ccccc1C(F)(F)F`, the survival is inactive: 89%.
For `CCc1ccccc1NC(=O)CN(c1cccc(C)c1C)S(C)(=O)=O`, the survival is inactive: 72%.
On to `CCOC(=O)C1CCCN(S(=O)(=O)c2ccc3c(c2)CCN3C(=O)CC)C1` (stereo not given), for which the survival is inactive: 84%.
`Cc1cccc2sc(N3CCN(C(=O)CS(=O)(=O)c4ccc(F)cc4)CC3)nc12`: the survival is inactive: 73%.
The value for `N#Cc1cccc(Nc2ncnc3c2cnn3-c2cccc(Cl)c2)c1` was inactive: 81%.
Take `Cc1ccc(Cl)cc1-n1ncc2c(NC3CCCCC3)ncnc21`: the survival was inactive: 53%.
With `CCOC(=O)c1c(C)[nH]c(CCC(=O)Nc2c(Cl)cc(OC)cc2OC)c1C`, the survival is inactive: 72%.
The value for `Cc1ccc(C(=O)O)cc1-n1c(C)ccc1-c1ccccc1` was inactive: 64%; that for `CCc1ccc(S(=O)(=O)c2cnc3ccc(OC)cc3c2N2CCCC(C)C2)cc1` (stereo not given) was active: 2%.
The value for `Cc1cc(C(=O)N2CCN(c3ccc(F)cc3)CC2)c2c(C)nn(-c3cccc(Cl)c3C)c2n1` was inactive: 133%; that for `COc1cc(OC)c2c(C)c(CC(=O)NCCc3ccccc3OC)c(=O)oc2c1` was inactive: 85%.
As for `CCCc1nc2nc(C)c(NS(=O)(=O)c3ccc(F)cc3)c(=O)n2[nH]1`, the survival is inactive: 80%.
Take `COc1ccc(CNC(=O)Cn2c(=O)nc(-c3ccccc3F)c3cc(Cl)ccc32)cc1OC`: the survival is inactive: 127%.
For `N#CC1=C(N)Oc2c(c(=O)oc3ccccc23)C12C(=O)Nc1ccccc12` (stereo not given) the value was inactive: 120%; for `Cc1nnc(NCc2ccccc2)c2ccccc12`, inactive: 103%.
For the compound `COC(=O)c1cccc(Nc2c(-c3ccc(OC)cc3)nc3nc[nH]n23)c1`, the survival was inactive: 75%.
With `Cc1ccc(C)c(NC(=O)Cn2nnc(C(=O)NCCc3ccccc3)c2N)c1`, the survival was inactive: 79%.
For `CCOC(=O)c1ccc(NC(=O)C(CC)Sc2nnc3c4ccccc4n(C)c3n2)cc1` (stereo not given), the survival is inactive: 130%.
The value for `O=S1(=O)C=C(Sc2nc3ccccc3s2)c2ccccc21` was active: 0%; that for `Cc1cc(C)c(NC(=O)Cn2c(=O)n(Cc3ccc4c(c3)OCO4)c(=O)c3ccccc32)c(C)c1` was inactive: 98%; that for `CCC1=Nc2cc(C(=O)NCc3ccccc3Cl)ccc2Sc2ccc(C)cc21` was inactive: 97%.
As to `CC1CCc2[nH]nc(C(=O)O)c2C1` (stereo not given), the survival was inactive: 114%.
Turning to `COc1ccc(NC(=O)CSC2=Nc3ccccc3C3=NC(CCC(=O)NC4CCCCC4)C(=O)N23)cc1Cl` (stereo not given), the survival was inactive: 78%.
Consider `COc1ccc(-c2noc(-c3nnn(-c4ccc(C)cc4C)c3C)n2)cc1`, for which the survival is inactive: 127%.
Turning to `COc1ccc(S(=O)(=O)c2cn(C)c3cc(N4CCCCCC4)c(F)cc3c2=O)cc1`, the survival is inactive: 91%.
Turning to `Cc1ccc(-n2nc(CO)c(C(=O)NCc3cccnc3)n2)cc1C`, the survival was inactive: 111%.
The value for `CCN(CC)C(NC(=O)c1ccccc1)C(=O)c1ccccc1` (stereo not given) was inactive: 106%.
Regarding `CCOc1ccccc1CNS(=O)(=O)c1ccc(-c2cnc(C3CC3)o2)cc1`, the survival was inactive: 70%.
With `CCOC(=O)c1cc(NC(=O)c2ccccc2)c(=O)n2c1oc1ccc(Cl)cc12`, the survival is inactive: 134%.
On to `Cc1ccc(NC(=O)CSc2nncn2C)c(C)c1`, for which the survival was inactive: 75%.
In the case of `O=C(Nc1cc(F)ccc1F)C1CCN(C(=O)c2cnn(-c3ccccc3)c2-n2cccc2)CC1`, the survival is inactive: 72%.
The value for `CC1CC(C)CN(C(=O)c2ccc(Cl)cc2)C1` (stereo not given) was inactive: 117%; that for `COc1ccc(Cl)c2sc(NC(=O)c3ccc(S(=O)(=O)N4CCCC4)cc3)nc12` was inactive: 73%; that for `COc1ccc(OC)c(C2CC(=O)Nc3c2c(=O)n(C)c2ncnn32)c1` (stereo not given) was inactive: 142%.
For `COc1ccccc1NC(=O)CSCc1cc(=O)c2cccc(Cl)c2[nH]1` the value was inactive: 67%.
The value for `COc1ccccc1Cn1c(C2CC(=O)N(c3ccccc3OC)C2)nc2ccccc21` (stereo not given) was inactive: 75%.
For the compound `O=C(CSC1=Nc2ccccc2C2=NC(Cc3ccccc3)C(=O)N12)Nc1cccc(Cl)c1` (stereo not given), the survival was inactive: 76%.
As for `CCOC(=O)c1c(-c2ccccc2)oc2ccc(NS(=O)(=O)c3ccc(C)cc3)cc12`, the survival was inactive: 28%.
In the case of `CCN1C(=O)c2ccccc2Sc2ccc(NC(=O)Nc3cc(C)cc(C)c3)cc21`, the survival is inactive: 62%.
Turning to `CCc1ccc2occ(CC(=O)Nc3c(C(=O)c4ccccc4)oc4ccccc34)c2c1`, the survival was inactive: 104%.
As to `Cc1ccc(CNC(=O)c2cc3sc(Cl)cc3n2C)cc1`, the survival is inactive: 89%.
`Cc1ccnc(NC(c2cccc(O)c2)c2ccc3ccc(C)nc3c2O)c1` (stereo not given): the survival is inactive: 74%.
Regarding `COc1ccc(CN(CCN)C2CC(C)N(C)CC2C)cc1` (stereo not given), the survival was inactive: 105%.
`O=S(=O)(Nc1ccc2nc[nH]c2c1)c1ccccc1`: the survival is inactive: 103%.
For `O=C(Cn1c(=O)n(-c2ccccc2)c(=O)c2c3c(sc21)CCC3)c1ccc(Br)cc1` the value was inactive: 87%; for `Cc1ccc2nc(-c3ccc(Cl)c(NC(=O)COc4ccc([N+](=O)[O-])cc4)c3)oc2c1`, inactive: 60%.
In the case of `Cc1ccc(C(C)C)cc1S(=O)(=O)Nc1ccccn1`, the survival is inactive: 95%.
`CCOC(=O)c1c(C)oc2ccc(N(C(=O)c3ccncc3)S(=O)(=O)c3ccc(F)cc3C)cc12`: the survival is inactive: 95%.
With `COc1cccc(NC(=O)c2cnc(SCC(=O)N3CCCc4ccccc43)n(C)c2=O)c1`, the survival is inactive: 54%.
The value for `COc1ccccc1N1CCN(S(=O)(=O)c2cc(C(=O)Nc3ccc(Oc4ccccc4)cc3)ccc2F)CC1` was inactive: 75%; that for `CC(C)CCNC(=O)CCCn1c(=O)c2cccn2c2ccccc21` was inactive: 80%; that for `Cc1cccc(CS(=O)(=O)Cc2ccc(C(=O)NCc3ccc(F)cc3)o2)c1` was inactive: 88%.
With `CCOc1cc(S(=O)(=O)NC2CC2)c(OCC)cc1-n1cnnn1`, the survival was inactive: 102%.
As to `CCCN1CC=C2C(C1)C(c1ccc(C(=O)OC)cc1)C(C#N)=C(N)C2(C#N)C#N` (stereo not given), the survival was inactive: 108%.
The value for `Cc1noc(-c2ccc(-c3noc(-c4ccc(Cl)cc4)n3)cc2)n1` was inactive: 87%.
For `Cc1cc(C)cc(NC(=O)CN2C(=O)c3ccccc3Sc3ccc(C(=O)N4CCCC4)cc32)c1`, the survival is inactive: 71%.
Take `Cc1ccc(C)c(CN2CCCN(Cc3ccccc3C)S2(=O)=O)c1`: the survival was inactive: 76%.
For `CC1C=CCC2C(=O)N(c3ccc(OC(=O)c4ccco4)cc3)C(=O)C12` (stereo not given) the value was inactive: 104%.
The value for `COc1ccc(CCn2c(-c3ccco3)nc3ccccc3c2=O)cc1OC` was inactive: 96%; that for `COc1ccccc1NC(=O)CSc1nnc2c(n1)[nH]c1ccccc12` was inactive: 107%; that for `O=C(CN1C(=O)CCc2cc(Br)ccc21)Nc1ccc(OC(F)(F)F)cc1` was inactive: 88%.
The value for `CCOC(=O)c1ccc(Nc2c(-c3ccc(N(C)C)cc3)nc3nc[nH]n23)cc1` was inactive: 75%; that for `COc1ccc(NC(=O)c2cnc3cc(C)ccn3c2=O)c(OC)c1` was inactive: 102%; that for `COc1cccc(CNC(=O)c2nn(C)c3c2CSc2ccccc2-3)c1` was inactive: 84%.
Turning to `COc1ccc(Cn2c(=O)n(-c3ccc(C)cc3)c(=O)c3c2c2cc(C)ccc2n3C)cc1`, the survival was inactive: 143%.
For the compound `Cc1c(CN2CCCCC2)c(O)n(CCO)c(=O)c1C#N`, the survival is inactive: 106%.
